The supplement of paper PMC4604168 (melanoma cell lines)
The other results are listed elsewhere or left out. Most values come without repeats; read them as rough.

Legend:
Experiment in all cases: cell count relative to DMSO control; melanoma cells; higher = more viable cells
Settings in all cases: library dose: low library concentration; 72 h
[1] = tested on: MeWo
[2] = tested on: RPMI7951
[3] = tested on: RVH-421
[4] = tested on: SkMel28
[5] = tested on: SkMel30
[6] = tested on: SkMel5
[7] = tested on: UACC257
[8] = tested on: UACC62
[9] = tested on: MZ2-MEL
[10] = tested on: SkMel2
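Further: cell number obtained by counting DAPI-stained nuclei in high-throughput microscope images with image analysis software, screen run in 1,536-well plates.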

Compound | cell count [1] [%] | cell count [2] [%] | cell count [3] [%] | cell count [4] [%] | cell count [5] [%] | cell count [6] [%] | cell count [7] [%] | cell count [8] [%] | cell count [9] [%] | cell count [10] [%]
O=C(CCCCCCC(=O)Nc1ccccc1)NO [vorinostat] + O=C(Oc1ccc([N+](=O)[O-])cc1)N1CCC(C(O)(c2ccc3c(c2)OCO3)c2ccc3c(c2)OCO3)CC1 [JZL184] (first compound 0.08 µM, partner dose 1 µM) | 94.7 | 104 | 103 | 77.3 | 104 | 84.4 | 91.5 | 72.4 | – | –
O=C(O)c1ccc2c(c1)nc(Nc1cccc(Cl)c1)c1ccncc12 + C/C(O)=C(\C#N)C(=O)Nc1cc(Br)ccc1Br [LFM-A13] (first compound 0.4 µM, partner dose 2 µM) | 95.6 | 93.4 | 105 | 88.9 | 86.5 | 89.5 | 74.3 | 84 | – | –
Cc1cc(Nc2cc(N3CCN(C)CC3)nc(Sc3ccc(NC(=O)C4CC4)cc3)n2)n[nH]1 [Tozasertib] + Cc1cc(SCc2sc(-c3ccc(C(F)(F)F)c(F)c3)nc2C)ccc1OCC(=O)O [GW0742] (first compound 0.006 µM, partner dose 2 µM) | 94.7 | 105 | 108 | 73.8 | 88.6 | 103 | 90.2 | 83.6 | – | –
COc1ccc(COc2ccc(Cc3cnc(N)nc3N)cc2OC)cc1 + O=C(Oc1ccc([N+](=O)[O-])cc1)N1CCC(C(O)(c2ccc3c(c2)OCO3)c2ccc3c(c2)OCO3)CC1 [JZL184] (first compound 1 µM, partner dose 1 µM) | 102 | 102 | 106 | 85.3 | 104 | 89.4 | 73.8 | 80.7 | – | –
C#Cc1cccc(Nc2ncnc3cc(OCCOC)c(OCCOC)cc23)c1 [erlotinib] + O=C(Oc1ccc([N+](=O)[O-])cc1)N1CCC(C(O)(c2ccc3c(c2)OCO3)c2ccc3c(c2)OCO3)CC1 [JZL184] (first compound 0.8 µM, partner dose 1 µM) | 98.7 | 96.6 | 95.7 | 89.1 | 76.5 | 98.9 | 69.6 | 77 | 93.7 | –
O=C(O)C(=O)Nc1sc2c(c1C(=O)O)CCNC2 + C/C(O)=C(\C#N)C(=O)Nc1cc(Br)ccc1Br [LFM-A13] (first compound 1.66667 µM, partner dose 2 µM) | 98.2 | 94 | 108 | 88.4 | 113 | 101 | 86.5 | 94.3 | – | –
Cn1c(Nc2ccc(C(F)(F)F)cc2)nc2cc(Oc3ccnc(-c4ncc(C(F)(F)F)[nH]4)c3)ccc21 + C/C(O)=C(\C#N)C(=O)Nc1cc(Br)ccc1Br [LFM-A13] (first compound 0.08 µM, partner dose 2 µM) | 71.4 | 60.1 | 66 | 43.2 | 59.2 | 75.6 | 33.6 | 38.7 | 70.1 | –
Cc1cc([N+](=O)[O-])ccc1NS(=O)(=O)c1cc(Cl)ccc1Cl + O=C(Oc1ccc([N+](=O)[O-])cc1)N1CCC(C(O)(c2ccc3c(c2)OCO3)c2ccc3c(c2)OCO3)CC1 [JZL184] (first compound 1 µM, partner dose 1 µM) | 92.2 | 102 | 5.58 | 94.2 | 95.3 | 71.5 | 72.2 | 91.4 | 95.7 | –
CO[C@H]1C[C@@H]2CC[C@@H](C)[C@@](O)(O2)C(=O)C(=O)N2CCCC[C@H]2C(=O)O[C@H]([C@H](C)C[C@@H]2CC[C@@H](OCCO)[C@H](OC)C2)CC(=O)[C@H](C)/C=C(\C)[C@@H](O)[C@@H](OC)C(=O)[C@H](C)C[C@H](C)/C=C/C=C/C=C/1C [everolimus] + O=C(Oc1ccc([N+](=O)[O-])cc1)N1CCC(C(O)(c2ccc3c(c2)OCO3)c2ccc3c(c2)OCO3)CC1 [JZL184] (first compound 0.02 µM, partner dose 1 µM) | 80.5 | 85.6 | 76.1 | 54.5 | 65.3 | 86.4 | 67.3 | 59.7 | – | –
Oc1nc(-c2ccc(C(F)(F)F)cc2)nc2c1CSCC2 + O=C(Oc1ccc([N+](=O)[O-])cc1)N1CCC(C(O)(c2ccc3c(c2)OCO3)c2ccc3c(c2)OCO3)CC1 [JZL184] (first compound 2 µM, partner dose 1 µM) | 110 | 94.4 | 77.1 | 87.2 | 97.7 | 88.4 | 89.1 | 102 | 101 | –
C=CCn1c(=O)c2cnc(Nc3ccc(N4CCN(C)CC4)cc3)nc2n1-c1cccc(C(C)(C)O)n1 + C/C(O)=C(\C#N)C(=O)Nc1cc(Br)ccc1Br [LFM-A13] (first compound 0.02 µM, partner dose 2 µM) | 96.7 | 81.3 | 99.2 | 91.8 | 80.8 | 92.4 | 72.1 | 76.4 | – | –
C=CCn1c(=O)c2cnc(Nc3ccc(N4CCN(C)CC4)cc3)nc2n1-c1cccc(C(C)(C)O)n1 + O=C(Oc1ccc([N+](=O)[O-])cc1)N1CCC(C(O)(c2ccc3c(c2)OCO3)c2ccc3c(c2)OCO3)CC1 [JZL184] (first compound 0.02 µM, partner dose 1 µM) | 106 | 76.7 | 88.7 | 89.9 | 89.2 | 70.2 | 88.7 | 68.6 | 96.2 | –
CN1CCN(c2ccc3nc(-c4c(N)c5c(F)cccc5[nH]c4=O)[nH]c3c2)CC1 [Dovitinib] + Cc1cc(SCc2sc(-c3ccc(C(F)(F)F)c(F)c3)nc2C)ccc1OCC(=O)O [GW0742] (first compound 0.1 µM, partner dose 2 µM) | 108 | 99.8 | 111 | 94.4 | 112 | 89.4 | 89.3 | 102 | – | 109
CC(C)C[C@H](NC(=O)[C@H](Cc1ccccc1)NC(=O)c1cnccn1)B(O)O [Bortezomib] + Cc1cc(SCc2sc(-c3ccc(C(F)(F)F)c(F)c3)nc2C)ccc1OCC(=O)O [GW0742] (first compound 0.001 µM, partner dose 2 µM) | 83.2 | 63.7 | 43.1 | 102 | 87.3 | 94.2 | 67.8 | 72.3 | – | 104
CO[C@H]1C[C@@H]2CC[C@@H](C)[C@@](O)(O2)C(=O)C(=O)N2CCCC[C@H]2C(=O)O[C@H]([C@H](C)C[C@@H]2CC[C@@H](OCCO)[C@H](OC)C2)CC(=O)[C@H](C)/C=C(\C)[C@@H](O)[C@@H](OC)C(=O)[C@H](C)C[C@H](C)/C=C/C=C/C=C/1C [everolimus] + C[As](C)SC[C@H](NC(=O)CC[C@H](N)C(=O)O)C(=O)NCC(=O)O [Darinaparsin] (first compound 0.02 µM, partner dose 0.4 µM) | 58.1 | 78.2 | 70.9 | 62.8 | 58.1 | – | – | 53.1 | 81.2 | –
CO[C@H]1C[C@@H]2CC[C@@H](C)[C@@](O)(O2)C(=O)C(=O)N2CCCC[C@H]2C(=O)O[C@H]([C@H](C)C[C@@H]2CC[C@@H](OCCO)[C@H](OC)C2)CC(=O)[C@H](C)/C=C(\C)[C@@H](O)[C@@H](OC)C(=O)[C@H](C)C[C@H](C)/C=C/C=C/C=C/1C [everolimus] + C/C(O)=C(\C#N)C(=O)Nc1cc(Br)ccc1Br [LFM-A13] (first compound 0.02 µM, partner dose 2 µM) | 67.6 | 88.3 | 84.2 | 52.4 | 64 | 115 | 65.7 | 92.7 | 78 | –
C#Cc1cccc(Nc2ncnc3cc(OCCOC)c(OCCOC)cc23)c1 [erlotinib] + C/C(O)=C(\C#N)C(=O)Nc1cc(Br)ccc1Br [LFM-A13] (first compound 0.8 µM, partner dose 2 µM) | 104 | 87.6 | 105 | 61 | 91.8 | 105 | 84.7 | 89.1 | 95 | –
Nc1ccn([C@@H]2O[C@H](CO)[C@@H](O)C2(F)F)c(=O)n1 [gemcitabine] + Cc1cc(SCc2sc(-c3ccc(C(F)(F)F)c(F)c3)nc2C)ccc1OCC(=O)O [GW0742] (first compound 0.0004 µM, partner dose 2 µM) | 82.7 | 82.5 | 81 | 93.6 | 98.6 | 90.8 | 102 | 91.1 | – | –
O=C(O)C(=O)Nc1sc2c(c1C(=O)O)CCNC2 + O=C(Oc1ccc([N+](=O)[O-])cc1)N1CCC(C(O)(c2ccc3c(c2)OCO3)c2ccc3c(c2)OCO3)CC1 [JZL184] (first compound 1.66667 µM, partner dose 1 µM) | 112 | 93.9 | 97.4 | 109 | 98.1 | 81.1 | 89 | 100 | 103 | –
C[C@@H]1CCN(C(=O)CC#N)C[C@@H]1N(C)c1ncnc2[nH]ccc12 + Cc1cc(SCc2sc(-c3ccc(C(F)(F)F)c(F)c3)nc2C)ccc1OCC(=O)O [GW0742] (first compound 1 µM, partner dose 2 µM) | 98.3 | 100 | 98 | 104 | 106 | 109 | 128 | 91.3 | 103 | –
COCC[n+]1c2c(n(Cc3cnccn3)c1C)C(=O)c1ccccc1C2=O + O=C(Oc1ccc([N+](=O)[O-])cc1)N1CCC(C(O)(c2ccc3c(c2)OCO3)c2ccc3c(c2)OCO3)CC1 [JZL184] (first compound 0.0004 µM, partner dose 1 µM) | 92.9 | 78.2 | 83.1 | 104 | 111 | 73.4 | 83.8 | 86 | – | –
COc1cc(N2CCC(N3CCN(C)CC3)CC2)ccc1Nc1ncc(Cl)c(Nc2ccccc2S(=O)(=O)C(C)C)n1 + O=C(Oc1ccc([N+](=O)[O-])cc1)N1CCC(C(O)(c2ccc3c(c2)OCO3)c2ccc3c(c2)OCO3)CC1 [JZL184] (first compound 0.08 µM, partner dose 1 µM) | 85.2 | 90.3 | 80.6 | 79.8 | 94.3 | 81.1 | 99.8 | 108 | 109 | –
